# Test results taken from the supplement of paper PMC10724272.
# MIC of invasive clinical C. tropicalis isolates, CLSI broth microdilution (fluconazole 0.12-256 mg/L, up to 1,024 for the azole-resistant cluster and its neighbour group; other ranges not stated); higher = less susceptible. Call: susceptible or wild type [S] / resistant or non-wild type [R] by CLSI breakpoints or cut-offs; intermediate and dose-dependent carry no call. '<=' and '>=' at the end values are inferred; the source marks only some of them. Isolates are numbered anew.
# How the values were obtained:
# Assay in all cases: CLSI broth microdilution.
# voriconazole = compound: C[C@@H](c1ncncc1F)[C@](O)(Cn1cncn1)c1ccc(F)cc1F [voriconazole]
# flucytosine = compound: Nc1[nH]c(=O)ncc1F [flucytosine]
# itraconazole = compound: CCC(C)n1ncn(-c2ccc(N3CCN(c4ccc(OCC5COC(Cn6cncn6)(c6ccc(Cl)cc6Cl)O5)cc4)CC3)cc2)c1=O [itraconazole]
# micafungin = compound: CCCCCOc1ccc(-c2cc(-c3ccc(C(=O)N[C@H]4C[C@@H](O)[C@@H](O)NC(=O)[C@@H]5[C@@H](O)[C@@H](C)CN5C(=O)[C@H]([C@H](O)CC(N)=O)NC(=O)[C@H]([C@H](O)[C@@H](O)c5ccc(O)c(OS(=O)(=O)O)c5)NC(=O)[C@@H]5C[C@@H](O)CN5C(=O)[C@H]([C@@H](C)O)NC4=O)cc3)no2)cc1 [micafungin]
# fluconazole = compound: OC(Cn1cncn1)(Cn1cncn1)c1ccc(F)cc1F [fluconazole]
# anidulafungin = compound: CCCCCOc1ccc(-c2ccc(-c3ccc(C(=O)N[C@H]4C[C@@H](O)[C@@H](O)NC(=O)[C@@H]5[C@@H](O)[C@@H](C)CN5C(=O)[C@H]([C@@H](C)O)NC(=O)[C@H]([C@H](O)[C@@H](O)c5ccc(O)cc5)NC(=O)[C@@H]5C[C@@H](O)CN5C(=O)[C@H]([C@@H](C)O)NC4=O)cc3)cc2)cc1 [anidulafungin]
# caspofungin = compound: CC[C@H](C)C[C@H](C)CCCCCCCCC(=O)N[C@H]1C[C@@H](O)[C@@H](NCCN)NC(=O)[C@@H]2[C@@H](O)CCN2C(=O)[C@H]([C@H](O)CCN)NC(=O)[C@H]([C@H](O)[C@@H](O)c2ccc(O)cc2)NC(=O)[C@@H]2C[C@@H](O)CN2C(=O)[C@H]([C@@H](C)O)NC1=O [caspofungin]
# amphotericin B = compound: C[C@@H]1[C@H](O)[C@@H](C)/C=C/C=C/C=C/C=C/C=C/C=C/C=C/[C@H](O[C@@H]2O[C@H](C)[C@@H](O)[C@H](N)[C@@H]2O)C[C@@H]2O[C@](O)(C[C@@H](O)C[C@@H](O)[C@H](O)CC[C@@H](O)C[C@@H](O)CC(=O)O[C@H]1C)C[C@H](O)[C@H]2C(=O)O [amphotericin B]
# posaconazole = compound: CC[C@@H]([C@H](C)O)n1ncn(-c2ccc(N3CCN(c4ccc(OC[C@@H]5CO[C@@](Cn6cncn6)(c6ccc(F)cc6F)C5)cc4)CC3)cc2)c1=O [posaconazole]
Test System,MIC (voriconazole),MIC (flucytosine),MIC (itraconazole),MIC (micafungin),MIC (fluconazole),MIC (anidulafungin),MIC (caspofungin),MIC (amphotericin B),MIC (posaconazole)
"Candida tropicalis isolate 369 (ERG11 copies: 2, Erg11p: no key change)",0.12 mg/L [S],≤ 0.06 mg/L [S],0.25 mg/L [S],0.03 mg/L [S],2 mg/L [S],0.06 mg/L [S],0.03 mg/L [S],1 mg/L [S],0.25 mg/L [S]
"Candida tropicalis isolate 52 (ERG11 copies: 2, Erg11p: Y132F, S154F (homozygous))",≥ 8 mg/L [R],≤ 0.06 mg/L [S],1 mg/L [R],0.03 mg/L [S],256 mg/L [R],0.12 mg/L [S],0.25 mg/L [S],1 mg/L [S],1 mg/L [R]
"Candida tropicalis isolate 92 (ERG11 copies: 2, Erg11p: no key change)",0.06 mg/L [S],≤ 0.06 mg/L [S],0.12 mg/L [S],0.03 mg/L [S],2 mg/L [S],0.12 mg/L [S],0.03 mg/L [S],1 mg/L [S],0.12 mg/L [S]
"Candida tropicalis isolate 216 (ERG11 copies: 2, Erg11p: no key change)",0.06 mg/L [S],≤ 0.06 mg/L [S],0.12 mg/L [S],0.03 mg/L [S],1 mg/L [S],0.06 mg/L [S],0.03 mg/L [S],1 mg/L [S],0.12 mg/L [S]
"Candida tropicalis isolate 196 (ERG11 copies: 2, Erg11p: no key change)",0.03 mg/L [S],≤ 0.06 mg/L [S],0.12 mg/L [S],0.03 mg/L [S],0.5 mg/L [S],0.03 mg/L [S],0.03 mg/L [S],1 mg/L [S],0.06 mg/L [S]
"Candida tropicalis isolate 351 (ERG11 copies: 2, Erg11p: no key change)",0.12 mg/L [S],≤ 0.06 mg/L [S],0.25 mg/L [S],0.06 mg/L [S],1 mg/L [S],0.12 mg/L [S],0.06 mg/L [S],1 mg/L [S],0.25 mg/L [S]
"Candida tropicalis isolate 353 (ERG11 copies: 2, Erg11p: no key change)",0.12 mg/L [S],≤ 0.06 mg/L [S],0.12 mg/L [S],0.03 mg/L [S],2 mg/L [S],0.06 mg/L [S],0.03 mg/L [S],1 mg/L [S],0.12 mg/L [S]
"Candida tropicalis isolate 106 (ERG11 copies: 2, Erg11p: no key change)",0.03 mg/L [S],≤ 0.06 mg/L [S],0.12 mg/L [S],0.03 mg/L [S],1 mg/L [S],≤ 0.015 mg/L [S],0.06 mg/L [S],0.5 mg/L [S],0.06 mg/L [S]
"Candida tropicalis isolate 241 (ERG11 copies: 2, Erg11p: no key change)",≤ 0.008 mg/L [S],≤ 0.06 mg/L [S],0.015 mg/L [S],0.015 mg/L [S],0.25 mg/L [S],≤ 0.015 mg/L [S],0.015 mg/L [S],1 mg/L [S],0.015 mg/L [S]
"Candida tropicalis isolate 198 (ERG11 copies: 7, Erg11p: Y132F, S154F (heterozygous))",> 8 mg/L [R],≤ 0.06 mg/L [S],1 mg/L [R],0.03 mg/L [S],512 mg/L [R],0.12 mg/L [S],0.03 mg/L [S],1 mg/L [S],0.5 mg/L [R]
"Candida tropicalis isolate 295 (ERG11 copies: 2, Erg11p: no key change)",0.12 mg/L [S],≤ 0.06 mg/L [S],0.25 mg/L [S],0.03 mg/L [S],1 mg/L [S],0.03 mg/L [S],0.03 mg/L [S],2 mg/L [S],0.25 mg/L [S]
"Candida tropicalis isolate 36 (ERG11 copies: 2, Erg11p: no key change)",0.12 mg/L [S],≤ 0.06 mg/L [S],0.25 mg/L [S],0.06 mg/L [S],2 mg/L [S],0.03 mg/L [S],0.03 mg/L [S],1 mg/L [S],0.25 mg/L [S]
"Candida tropicalis isolate 180 (ERG11 copies: 2, Erg11p: no key change)",≤ 0.008 mg/L [S],0.12 mg/L [S],0.015 mg/L [S],0.008 mg/L [S],0.25 mg/L [S],≤ 0.015 mg/L [S],0.015 mg/L [S],1 mg/L [S],0.015 mg/L [S]
"Candida tropicalis isolate 210 (ERG11 copies: 2, Erg11p: no key change)",0.25 µg/mL,≤ 0.06 mg/L [S],0.5 mg/L [S],0.06 mg/L [S],2 mg/L [S],0.12 mg/L [S],0.06 mg/L [S],0.25 mg/L [S],0.5 mg/L [R]
"Candida tropicalis isolate 348 (ERG11 copies: 2, Erg11p: no key change)",0.12 mg/L [S],≤ 0.06 mg/L [S],0.25 mg/L [S],0.03 mg/L [S],1 mg/L [S],0.03 mg/L [S],0.03 mg/L [S],1 mg/L [S],0.25 mg/L [S]
"Candida tropicalis isolate 266 (ERG11 copies: 2, Erg11p: no key change)",0.12 mg/L [S],≤ 0.06 mg/L [S],0.25 mg/L [S],0.015 mg/L [S],2 mg/L [S],≤ 0.015 mg/L [S],0.03 mg/L [S],1 mg/L [S],0.25 mg/L [S]
"Candida tropicalis isolate 436 (ERG11 copies: 2, Erg11p: no key change)",0.03 mg/L [S],≤ 0.06 mg/L [S],0.06 mg/L [S],0.03 mg/L [S],0.5 mg/L [S],0.06 mg/L [S],0.06 mg/L [S],1 mg/L [S],0.06 mg/L [S]
"Candida tropicalis isolate 307 (ERG11 copies: 2, Erg11p: no key change)",0.12 mg/L [S],≤ 0.06 mg/L [S],0.25 mg/L [S],0.06 mg/L [S],2 mg/L [S],0.12 mg/L [S],0.25 mg/L [S],0.5 mg/L [S],0.12 mg/L [S]
